# Measurements from the supplement of paper PMC8728848.
# This is one part of the list.
# Experiments:
# Assay in all cases: glycan array binding signal (z-score within array); higher = stronger binding
# Details in all cases: glycan notation: IUPAC condensed, linker removed
# [1] = molecular target: Neu5Ac(a2-3)Gal(b1-4)GlcNAc(b1-6)GalNAc
# Procedure, shortened: (§1)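 Negative Z-scores can be read as non-binding. The Z-score is calculated within each array and then averaged across arrays of one protein sequence at different concentrations or buffers and across linkers. Arrays, 3228 in all, were curated from the Consortium for Functional Glycomics database and kept only where the protein sequence was available.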
# [2] = molecular target: Neu5Ac(a2-3)Gal(b1-4)GlcNAc(b1-6)[Gal(b1-3)]GalNAc
# Procedure, shortened: as §1
# [3] = molecular target: Neu5Ac(a2-3)Gal(b1-4)GlcNAc(b1-6)[Neu5Ac(a2-3)Gal(b1-3)]GalNAc
# Procedure, shortened: as §1
# [4] = molecular target: Neu5Ac(a2-3)Gal(b1-4)GlcNAc6S
# Procedure, shortened: as §1
# [5] = molecular target: Neu5Ac(a2-3)Gal(b1-4)[Fuc(a1-3)]GlcNAc
# Procedure, shortened: as §1
# [6] = molecular target: Neu5Ac(a2-3)Gal(b1-4)[Fuc(a1-3)]GlcNAc(b1-2)Man
# Procedure, shortened: as §1
# [7] = molecular target: Neu5Ac(a2-3)Gal(b1-4)[Fuc(a1-3)]GlcNAc(b1-3)Gal
# Procedure, shortened: as §1
# [8] = molecular target: Neu5Ac(a2-3)Gal(b1-4)[Fuc(a1-3)]GlcNAc(b1-3)Gal(b1-4)GlcNAc
# Procedure, shortened: as §1
# [9] = molecular target: Neu5Ac(a2-3)Gal(b1-4)[Fuc(a1-3)]GlcNAc(b1-3)Gal(b1-4)[Fuc(a1-3)]GlcNAc(b1-3)Gal(b1-4)[Fuc(a1-3)]GlcNAc
# Procedure, shortened: as §1
# [10] = molecular target: Neu5Ac(a2-3)Gal(b1-4)[Fuc(a1-3)]GlcNAc(b1-3)GalNAc
# Procedure, shortened: as §1
# [11] = molecular target: Neu5Ac(a2-3)Gal(b1-4)[Fuc(a1-3)]GlcNAc(b1-6)[Gal(b1-3)]GalNAc
# Procedure, shortened: as §1
# [12] = molecular target: Neu5Ac(a2-3)Gal(b1-4)[Fuc(a1-3)]GlcNAc(b1-6)[Neu5Ac(a2-3)Gal(b1-3)]GalNAc
# Procedure, shortened: as §1
# [13] = molecular target: Neu5Ac(a2-3)Gal(b1-4)[Fuc(a1-3)]GlcNAc6S
# Procedure, shortened: as §1
# [14] = molecular target: Neu5Ac(a2-3)Gal6S(b1-4)GlcNAc
# Procedure, shortened: as §1
# [15] = molecular target: Neu5Ac(a2-3)Gal6S(b1-4)[Fuc(a1-3)]GlcNAc
# Procedure, shortened: as §1
# Neu5Ac(a2-3)GalNAc = molecular target: Neu5Ac(a2-3)GalNAc
# Procedure, shortened: as §1
# [16] = molecular target: Neu5Ac(a2-3)GalNAc(b1-4)GlcNAc
# Procedure, shortened: as §1
# [17] = molecular target: Neu5Ac(a2-3)[GalNAc(b1-4)]Gal(b1-4)Glc
# Procedure, shortened: as §1
# [18] = molecular target: Neu5Ac(a2-3)[GalNAc(b1-4)]Gal(b1-4)GlcNAc
# Procedure, shortened: as §1
# [19] = molecular target: Neu5Ac(a2-3)[GalNAc(b1-4)]Gal(b1-4)GlcNAc(b1-3)GalNAc
# Procedure, shortened: as §1
# [20] = molecular target: Neu5Ac(a2-3)[Neu5Ac(a2-6)]GalNAc
# Procedure, shortened: as §1
# Neu5Ac(a2-6)Gal = molecular target: Neu5Ac(a2-6)Gal
# Procedure, shortened: as §1
# [21] = molecular target: Neu5Ac(a2-6)Gal(b1-3)GlcNAc(b1-3)[Gal(b1-4)GlcNAc(b1-6)]Gal(b1-4)Glc
# Procedure, shortened: as §1
# Neu5Ac(a2-6)Gal(b1-4)Glc = molecular target: Neu5Ac(a2-6)Gal(b1-4)Glc
# Procedure, shortened: as §1
# [22] = molecular target: Neu5Ac(a2-6)Gal(b1-4)GlcNAc
# Procedure, shortened: as §1
# [23] = molecular target: Neu5Ac(a2-6)Gal(b1-4)GlcNAc(b1-2)Man
# Procedure, shortened: as §1
# [24] = molecular target: Neu5Ac(a2-6)Gal(b1-4)GlcNAc(b1-2)Man(a1-3)Man(b1-4)GlcNAc(b1-4)GlcNAc
# Procedure, shortened: as §1
# [25] = molecular target: Neu5Ac(a2-6)Gal(b1-4)GlcNAc(b1-2)Man(a1-3)[Gal(b1-4)GlcNAc(b1-2)Man(a1-6)]Man(b1-4)GlcNAc(b1-4)GlcNAc
# Procedure, shortened: as §1
# [26] = molecular target: Neu5Ac(a2-6)Gal(b1-4)GlcNAc(b1-2)Man(a1-3)[GlcNAc(b1-2)Man(a1-6)]Man(b1-4)GlcNAc(b1-4)GlcNAc
# Procedure, shortened: as §1
# [27] = molecular target: Neu5Ac(a2-6)Gal(b1-4)GlcNAc(b1-2)Man(a1-3)[GlcNAc(b1-4)][Neu5Ac(a2-6)Gal(b1-4)GlcNAc(b1-2)Man(a1-6)]Man(b1-4)GlcNAc(b1-4)GlcNAc
# Procedure, shortened: as §1
# [28] = molecular target: Neu5Ac(a2-6)Gal(b1-4)GlcNAc(b1-2)Man(a1-3)[Man(a1-6)]Man(b1-4)GlcNAc(b1-4)GlcNAc
# Procedure, shortened: as §1
binder,measurement,setting,value
SP16665A-bot-344-23-344 (Bacteroides ovatus) (protein) SDNEFPDFDYQTVYFANQYGLRTIELGESEFVDNTLDNQHKMVIKAAWGGGYTNRNNVVINFKVDESLCDNLYFKDTDQPLVPMPASYYTLASDRIAIPKGQIMAGVEVQLTDDFFADEKSISENYVIPLLMTNVQGADSILQGKPVVENPVLTNAGDWSILPQNFVLYAVKYVNPWHGEYLRRGIDHATVAGTSKDIIRHEQFVENDEVVNISTKSMKDNLLTLKTKDESGKDISYTVRLSFAEDGSCTVHSGSQNVVVSGSGKFVSKGEKNSLGGKDRNAIYLDYTVNLTDNNIQLATKDTLVLRTRNVYGGKSLEVVRK,glycan array binding signal (z-score),[1],-0.192
same,glycan array binding signal (z-score),[2],-0.225
same,glycan array binding signal (z-score),[3],-0.543
same,glycan array binding signal (z-score),[4],-0.405
same,glycan array binding signal (z-score),[5],-0.247
same,glycan array binding signal (z-score),[6],0.057
same,glycan array binding signal (z-score),[7],-0.135
same,glycan array binding signal (z-score),[8],0.266
same,glycan array binding signal (z-score),[9],-0.053
same,glycan array binding signal (z-score),[10],1.76
same,glycan array binding signal (z-score),[11],0.512
same,glycan array binding signal (z-score),[12],0.537
same,glycan array binding signal (z-score),[13],-0.15
same,glycan array binding signal (z-score),[14],-0.364
same,glycan array binding signal (z-score),[15],-0.363
same,glycan array binding signal (z-score),Neu5Ac(a2-3)GalNAc,0.234
same,glycan array binding signal (z-score),[16],-0.166
same,glycan array binding signal (z-score),[17],-0.539
same,glycan array binding signal (z-score),[18],0.103
same,glycan array binding signal (z-score),[19],-0.482
same,glycan array binding signal (z-score),[20],0.465
same,glycan array binding signal (z-score),Neu5Ac(a2-6)Gal,0.1
same,glycan array binding signal (z-score),[21],-0.503
same,glycan array binding signal (z-score),Neu5Ac(a2-6)Gal(b1-4)Glc,-0.226
same,glycan array binding signal (z-score),[22],0.493
same,glycan array binding signal (z-score),[23],-0.623
same,glycan array binding signal (z-score),[24],-0.385
same,glycan array binding signal (z-score),[25],-0.154
same,glycan array binding signal (z-score),[26],-0.135
same,glycan array binding signal (z-score),[27],-0.08
same,glycan array binding signal (z-score),[28],-0.362
